From article PMC4336329 (PLoS ONE, 2015)
Among all 310,000 compounds or so, about 14,000 (4.5%) showed an effect of 50% or more. The effect is printed as a negative number. This is one part of the list.

target: human ether-à-go-go-related gene (hERG) potassium channel (human, UniProt Q12809); assay: primary screen, population patch clamp on CHO cells stably expressing hERG
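Also: peak tail current of the secondary pulse compared with the same well before compound.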

Sequence of human ether-à-go-go-related gene (hERG) potassium channel (Q12809 whole entry, looked up): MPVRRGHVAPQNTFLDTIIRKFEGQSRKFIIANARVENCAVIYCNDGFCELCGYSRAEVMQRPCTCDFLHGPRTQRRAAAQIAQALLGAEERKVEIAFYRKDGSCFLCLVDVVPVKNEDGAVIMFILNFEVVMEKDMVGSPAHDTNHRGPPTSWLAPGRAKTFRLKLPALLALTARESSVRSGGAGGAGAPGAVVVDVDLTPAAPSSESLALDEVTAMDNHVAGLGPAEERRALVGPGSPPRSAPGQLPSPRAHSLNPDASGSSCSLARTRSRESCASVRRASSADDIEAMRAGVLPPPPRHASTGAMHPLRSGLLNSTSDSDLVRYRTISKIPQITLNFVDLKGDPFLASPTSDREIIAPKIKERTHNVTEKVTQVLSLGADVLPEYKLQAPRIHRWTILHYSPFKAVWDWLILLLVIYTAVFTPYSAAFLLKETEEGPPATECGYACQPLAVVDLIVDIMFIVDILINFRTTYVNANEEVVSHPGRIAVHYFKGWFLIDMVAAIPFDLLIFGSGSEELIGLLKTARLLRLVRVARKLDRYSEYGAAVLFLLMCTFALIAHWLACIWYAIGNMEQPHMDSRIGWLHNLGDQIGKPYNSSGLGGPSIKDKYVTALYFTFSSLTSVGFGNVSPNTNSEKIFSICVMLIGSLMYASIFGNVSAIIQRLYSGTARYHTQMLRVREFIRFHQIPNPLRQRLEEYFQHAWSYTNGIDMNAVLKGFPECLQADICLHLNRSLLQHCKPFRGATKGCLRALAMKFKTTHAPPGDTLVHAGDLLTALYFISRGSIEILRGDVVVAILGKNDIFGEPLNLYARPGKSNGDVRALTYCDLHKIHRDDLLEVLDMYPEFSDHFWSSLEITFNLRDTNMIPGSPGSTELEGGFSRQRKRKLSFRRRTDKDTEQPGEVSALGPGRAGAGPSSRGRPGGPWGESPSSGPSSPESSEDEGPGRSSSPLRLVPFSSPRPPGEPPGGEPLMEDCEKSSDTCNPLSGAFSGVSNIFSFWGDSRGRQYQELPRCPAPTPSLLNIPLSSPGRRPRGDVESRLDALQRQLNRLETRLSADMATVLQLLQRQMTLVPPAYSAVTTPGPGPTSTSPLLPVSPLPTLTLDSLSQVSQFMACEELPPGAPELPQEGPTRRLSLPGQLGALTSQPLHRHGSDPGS

Going from Cc1c(Cl)cccc1NC(=S)NCc1cccn1C to Cn1cccc1/C=C1\SC(=S)N(NC(=O)c2ccccc2)C1=O, the “hERG current change (%, negative = inhibition) at 10uM” value rises from 7.23% to 7.44%.

Compared with Cc1cc(C)nc(/N=C(\NC(=O)C(C)(C)C)Nc2ccc(F)cc2)n1, Cc1cc(C)nc(SCC(=O)c2ccc(Cl)cc2)n1 is lower in “hERG current change (%, negative = inhibition) at 10uM” value: 23.5% for the first, 2.14% for the second.

First: COc1cc(NC(=O)CSc2nnc(C)s2)cc(OC)c1
Second: COc1ccc(C2CC(=O)c3cnc(NC(=O)c4cc(OC)cc(OC)c4)nc3C2)cc1 (centres unmarked)
The “hERG current change (%, negative = inhibition) at 10uM” value of the first is higher: 11.9% for the first, -23.1% for the second.

Going from O=C(Nc1ccc(Cl)cc1C(=O)c1ccccc1)c1ccc(Br)o1 to O=C(COC(=O)c1cccc(O)c1)Nc1nnc(-c2ccccc2)o1, the “hERG current change (%, negative = inhibition) at 10uM” value rises from 24.5% to 32.8%.

Going from Cn1nc(-c2ccc(C(=O)N3CCN(CCO)CC3)cc2)c2ccccc2c1=O to Cn1cc(/C=C(\NC(=O)c2ccccc2Cl)C(=O)NCCN2CCOCC2)c2ccccc21, the “hERG current change (%, negative = inhibition) at 10uM” value falls from -6.52% to -30%.

First: CC(Oc1ccc(Cl)cc1Cl)c1nc(-c2ccc(NC(=O)c3ccccn3)cc2)no1 (centres unmarked)
Second: Cc1ccnc(NS(=O)(=O)c2ccc(NC(=O)c3cc(=O)c4ccccc4o3)cc2)n1
The “hERG current change (%, negative = inhibition) at 10uM” value of the first is lower: 10.4% for the first, 25.5% for the second.

Going from COc1ccc(OCC(=O)N(C)Cc2ccccc2)cc1 to O=C(COC(=O)c1ccco1)c1ccc2ccccc2c1, the “hERG current change (%, negative = inhibition) at 10uM” value rises from 0.218% to 9.8%.

Compared with O=C(Nc1ccnn1C1CCN(C(=O)c2cnsn2)CC1)c1cccc(F)c1, Cc1cccc(C(=O)NC2CCN(CC(=O)Nc3ccc4c(c3)OCO4)CC2)c1 is lower in “hERG current change (%, negative = inhibition) at 10uM” value: -8.92% for the first, -57.7% for the second.

Compared with CC(=O)c1ccccc1OCC(O)CN1CCN(C(c2ccccc2)c2ccccc2)CC1 (centres unmarked), O=C(NCc1cccnc1)C(=O)NCC(c1ccco1)N1CCN(c2ccc(F)cc2)CC1 (centres unmarked) is higher in “hERG current change (%, negative = inhibition) at 10uM” value: -66.7% for the first, -22.6% for the second.

First: CCn1c(=O)c2sccc2n(CC(=O)NC2CCCC2)c1=O
Second: CCN(CC)S(=O)(=O)c1ccc(C)c(NC(=O)CN2C(=O)NC3(CCCC3)C2=O)c1
The “hERG current change (%, negative = inhibition) at 10uM” value of the first is higher: 15% for the first, 10.9% for the second.

Compared with O=C(COc1ccccc1Cl)NCC(c1cccs1)N1CCOCC1 (centres unmarked), Cc1ccccc1CCNC(=O)Cn1ccc2cc(S(=O)(=O)N3CCCC3)ccc21 is higher in “hERG current change (%, negative = inhibition) at 10uM” value: -27% for the first, 5.11% for the second.

Going from COC(=O)c1ccc2c(=O)[nH]c(CN3c4ccccc4CC3C)nc2c1 (centres unmarked) to COC(=O)c1ccc(C2C(Oc3ccccc3C)C(=O)N2CCc2ccc(OC)c(OC)c2)cc1 (centres unmarked), the “hERG current change (%, negative = inhibition) at 10uM” value rises from -10.2% to 5.14%.

Going from NS(=O)(=O)c1ccc(CCNC(=O)COC(=O)/C=C/c2ccc(Cl)cc2)cc1 to COc1ccc(S(=O)(=O)N2CCOC2CNC(=O)C(=O)NCc2ccc(F)cc2)cc1 (centres unmarked), the “hERG current change (%, negative = inhibition) at 10uM” value rises from -9% to -0.994%.

First: COC(=O)c1ccc(C)c(NC(=O)CN(c2ccccc2)S(=O)(=O)N(C)C)c1
Second: COc1ccccc1-c1nc(S(=O)(=O)c2ccc(Cl)cc2)c(N(C)C)o1
The “hERG current change (%, negative = inhibition) at 10uM” value of the first is higher: 16.3% for the first, 12.7% for the second.

First: CCCN(CCC)C(=O)CC(c1ccccc1)c1cc(Br)ccc1O (centres unmarked)
Second: COc1ccc(O)c(CN2CCN(CCCc3ccccc3)C(CCO)C2)c1 (centres unmarked)
The “hERG current change (%, negative = inhibition) at 10uM” value of the first is higher: 8.47% for the first, -68.2% for the second.

Going from COc1ccc(CNS(=O)(=O)c2cc3c4c(c2)C(C)C(=O)N4CCC3)cc1 (centres unmarked) to CC1CCN(S(=O)(=O)c2ccc(S(=O)(=O)NCc3cccnc3)cc2)CC1, the “hERG current change (%, negative = inhibition) at 10uM” value rises from -11.4% to 20.9%.

First: O=C(COc1ccccc1[N+](=O)[O-])N/N=C/c1ccccn1
Second: CC(C)(C)c1cc(C(=O)N/N=C/c2ccc(-c3ccccc3[N+](=O)[O-])o2)n[nH]1
The “hERG current change (%, negative = inhibition) at 10uM” value of the first is higher: 10.5% for the first, -18.5% for the second.

Compared with Cc1sc2ncnc(N(C)Cc3ccco3)c2c1C, Cc1nnc(NC(=O)c2ccco2)s1 is higher in “hERG current change (%, negative = inhibition) at 10uM” value: -4.64% for the first, 3.43% for the second.

Compared with CC(=O)NNc1ccc(C(F)(F)F)cc1[N+](=O)[O-], C/C(=N\NC(=O)C1CC1)c1ccc(C(C)(C)C)cc1 is higher in “hERG current change (%, negative = inhibition) at 10uM” value: 9.46% for the first, 9.56% for the second.

First: CCCc1ccc(OCC(=O)NNC(=S)NC(=O)c2ccco2)cc1
Second: O=C(Oc1ccc2c3c(c(=O)oc2c1)CCCC3)c1ccco1
The “hERG current change (%, negative = inhibition) at 10uM” value of the first is higher: 8.34% for the first, -3.63% for the second.

Going from O=C(NCCN1CCOCC1)c1cccc(S(=O)(=O)Nc2ccc(Br)cc2)c1 to Cc1ccc(NC(=O)CN2CCC(C(=O)c3ccc(F)cc3)CC2)cc1, the “hERG current change (%, negative = inhibition) at 10uM” value falls from -20.4% to -72.5%.

First: Cc1cnc[nH]1
Second: Cc1cc(C)cc(-n2ncc3c2CCCC3NC(=O)C2CCC2)c1 (centres unmarked)
The “hERG current change (%, negative = inhibition) at 10uM” value of the first is higher: -2.65% for the first, -76% for the second.

First: O=C(/C=C/c1ccc2c(c1)OCO2)Nc1nc(-c2ccccc2)cs1
Second: C/C(=N\NC(=O)c1ccccc1)c1c(C)[nH]n(-c2ccccc2)c1=O
The “hERG current change (%, negative = inhibition) at 10uM” value of the first is lower: 8.74% for the first, 21.9% for the second.

First: CCCC(=O)O/N=C(\c1ccccc1)c1ccncc1
Second: CC(=O)NC1=NN(C(C)=O)C(C)(c2ccccn2)S1 (centres unmarked)
The “hERG current change (%, negative = inhibition) at 10uM” value of the first is lower: 13.7% for the first, 40.7% for the second.

Going from CC(=O)N1CCN(CCN(CC2C(C)C=C(C)CC2C)C(C)=O)CC1 (centres unmarked) to C[C@H](NC(=O)c1nc[nH]c1C(=O)N1CC[NH2+]CC1)C(=O)OC(C)(C)C.[Cl-], the “hERG current change (%, negative = inhibition) at 10uM” value rises from -9.36% to 5.51%.

Compared with Cc1sc2ncn(CC(=O)NCC(=O)N3CCC4(CC3)OCCO4)c(=O)c2c1C, CC(C)Oc1ccc(C(CC(=O)N2CCOCC2)C(C)C)cc1 (centres unmarked) is higher in “hERG current change (%, negative = inhibition) at 10uM” value: -4.54% for the first, 5.26% for the second.

First: CC1CCCC(NS(=O)(=O)c2cc3c(cc2Cl)NC(=O)CO3)C1C (centres unmarked)
Second: Cc1ccc2oc(=O)cc(CN3CCC(C)CC3)c2c1
The “hERG current change (%, negative = inhibition) at 10uM” value of the first is lower: -10.5% for the first, 10.8% for the second.

Going from COc1cc(/C=C2/CCc3ccccc3C2=O)cc(OC)c1OC to Nc1nc(-c2ccc(Cl)cc2Cl)cn1N, the “hERG current change (%, negative = inhibition) at 10uM” value falls from -16.1% to -21.8%.
